Experimental data reported in PubChem BioAssay AID1347430 (National Center for Advancing Translational Sciences (NCATS), 2020).
Hit rate of the full screen: of about 91,000 compounds, about 130 (0.14%) were called active. This list was built around the results that the source calls inconclusive (neither active nor inactive); the mix of calls is not that of the screen. The call rests on the fitted dose curve; in most records, active means well fitted inhibition curve with a large enough effect; inconclusive means small, poorly fitted or top-dose-only effect; inactive means flat fitted curve, though single readings scatter. Potencies beside an inconclusive call are fits to weak or partial responses and may not hold up.

tested on: Uracil-DNA glycosylase; assay: Primary qHTS assay for inhibitors of Activation Induced Cytidine Deaminase (AID): UDG Counterscreen signal; conditions: FRET deamination/UDG coupled assay, UDG read, 4 h; series mostly up to 115 µM; further: nearly all actives have a fitted effect of over 65% in size
Potency means the concentration at half of the fitted maximal effect; tags describe the fitted curve by direction and shape.

`CC(=O)c1ccc(N2CCN(C(=O)C3CCN(S(=O)(=O)c4c(C)noc4/C=C/c4ccc(C)cc4)CC3)CC2)cc1` was tested. Which Potency did it give?
Its Potency is “inactive”.

For `COc1ccc(-c2noc(CSc3nnc(C)n3-c3ccc(C)cc3)n2)cc1OC`, which Potency is on record?
The Potency was inconclusive: 79.4 µM [inhibitor, partial curve, poor fit].

With `COc1cccc(Nc2nc(-c3ccccc3O)nc3ccccc23)c1` as the molecule, how does the Potency read?
The Potency was inconclusive: 89.1 µM [inhibitor, single point].

For `COc1cccc(NC(=O)CSC2=Nc3ccccc3C3=NC(CCC(=O)NCCc4ccccc4)C(=O)N23)c1` (configuration not stated), which Potency is on record?
The Potency was inconclusive: 79.4 µM [inhibitor, partial curve, poor fit].

With `O=C(CC(c1ccccc1)c1ccccc1)Oc1cc(Cl)ccc1Cl` as the molecule, how does the Potency read?
The Potency was “inactive”.

For `Cc1scc(C(=O)NCCC2=CCCCC2)c1C`, which Potency is on record?
Its Potency is “inactive”.

For `CCCN(CCC)CCCNC(=O)c1cc2c(-c3ccc(OC)c(OC)c3)nn(C)c2s1`, which Potency is on record?
The Potency was inconclusive: 89.1 µM [inhibitor, partial curve, poor fit].

`O=C1CC(c2nc(-c3ccc(Cl)cc3)no2)CN1c1ccc2c(c1)OCCO2` (configuration not stated) was tested. Which Potency did it give?
The Potency was inconclusive: 79.4 µM [inhibitor, partial curve, poor fit].

`CCOC(=O)c1cc(-c2ccco2)nc2c1c(C)nn2-c1ccccc1Cl` was tested. Which Potency did it give?
Its Potency is “inactive”.

`Cc1ccc(SCC(=O)Nc2ccc3oc(-c4ccccc4C)nc3c2)cc1` was tested. Which Potency did it give?
The Potency was inconclusive: 89.1 µM [inhibitor, single point].

Which Potency does the source give for `COc1ccccc1C(=O)NC1=C(C)Nc2ncnn2C1c1c[nH]c2ccccc12` (configuration not stated) here?
The Potency was “inactive”.

For `Cc1ccc2nc3sc(C(=O)NCCCN(C)c4ccccc4)cc3cc2c1`, which Potency is on record?
Its Potency is inconclusive: 100 µM [inhibitor, partial curve, poor fit].

With `COc1ccccc1CNC(=O)CCC1N=C2c3ccccc3N=C(SCc3ccc(C)cc3C)N2C1=O` (configuration not stated) as the molecule, how does the Potency read?
Its Potency is inconclusive: 100 µM [inhibitor, single point].

With `N#Cc1ccccc1OCC(=O)NC12CC3CC(CC(C3)C1)C2` as the molecule, how does the Potency read?
The Potency was “inactive”.

For `CCCCOc1ccc(CNC(=O)Cc2ccc(NC(=O)N3CCCCc4ccccc43)cc2)cc1`, which Potency is on record?
The Potency was inconclusive: 70.8 µM [inhibitor, single point].

For `COc1ccc(Cl)cc1NC(=O)Cn1c(=O)n(Cc2cccs2)c(=O)c2cccnc21`, which Potency is on record?
Its Potency is inconclusive: 70.8 µM [inhibitor, single point].

For `COc1ccc(Br)c2c1-c1nc(NC(=O)c3ccccc3F)sc1C2`, which Potency is on record?
Its Potency is inconclusive: 79.4 µM [inhibitor, partial curve, poor fit].

With `CN(c1ccccc1)S(=O)(=O)c1ccc(C(=O)OCn2nnc3ccccc3c2=O)cc1` as the molecule, how does the Potency read?
Its Potency is “inactive”.

`O=C(NCCCCCO)C1CCN(c2nc(Cl)nc3nc[nH]c23)CC1` was tested. Which Potency did it give?
The Potency was active: 89.1 µM.

Which Potency does the source give for `COc1ccc2c(c1)-c1nc(NC(=O)c3ccc(OC)c(Br)c3)sc1CC2` here?
The Potency was inconclusive: 28.2 µM [inhibitor, partial curve, poor fit].

For `Cc1cc(C)c(C)c(OCC(=O)Nc2ccc(S(=O)(=O)Nc3nc(C)cc(C)n3)cc2)c1`, which Potency is on record?
Its Potency is “inactive”.

For `Cc1cc(N)c2ccccc2[n+]1CCCCCCCCCC[n+]1c(C)cc(N)c2ccccc21`, which Potency is on record?
Its Potency is active: 89.1 µM.

How did the Potency turn out when `Cc1cccc(-c2nc3ccccc3n2Cc2ccccc2)c1` was run?
The Potency was inconclusive: 39.8 µM [inhibitor, partial curve, poor fit].

Which Potency does the source give for `CCOC(=O)N1CCc2c(sc(NCc3cccc(F)c3)c2C(=O)Nc2ccc(OC)cc2OC)C1` here?
The Potency was inconclusive: 22.4 µM [inhibitor, full curve].

How did the Potency turn out when `O=C(Nc1c(N2CCCC2)c2ccccc2oc1=O)C1CC(=O)N(c2ccccc2)C1` (configuration not stated) was run?
The Potency was “inactive”.

With `COc1ccc(CC(=O)N2CCc3cc(OC)c(OC)cc3C2COc2cc(C)cc(C)c2)cc1OC` (configuration not stated) as the molecule, how does the Potency read?
Its Potency is inconclusive: 44.7 µM [inhibitor, partial curve, poor fit].

For `O=C(NCCc1ccccc1Cl)c1sc2ncccc2c1-n1cccc1`, which Potency is on record?
The Potency was “inactive”.

With `CSc1ncc(Cl)c(C(=O)Nc2c(C(=O)Nc3cccc(Cl)c3)oc3ccccc23)n1` as the molecule, how does the Potency read?
The Potency was “inactive”.

`Cc1ccc(N2CCN(C(=O)c3cnc(N4CCCCC4)c4ccccc34)CC2)c(C)c1` was tested. Which Potency did it give?
Its Potency is inconclusive: 70.8 µM [inhibitor, partial curve, poor fit].

For `CCN(CC)c1nc2ccccc2nc1C(=O)Nc1cc(OC)c(OC)c(OC)c1`, which Potency is on record?
The Potency was inconclusive: 100 µM [inhibitor, single point].

With `COc1cc(OC)c(NC(=O)N2CC3CCCN3c3ccccc32)cc1Cl` (configuration not stated) as the molecule, how does the Potency read?
The Potency was inconclusive: 89.1 µM [inhibitor, single point].

For `CCN(CC)S(=O)(=O)c1ccc(NS(=O)(=O)c2ccc(C)cc2)cc1`, which Potency is on record?
The Potency was “inactive”.

With `COC(=O)c1cnn(-c2ncnc3sc4c(c23)CCCC4)c1N` as the molecule, how does the Potency read?
Its Potency is “inactive”.

How did the Potency turn out when `Cc1nc(Nc2ccc(Cl)cc2)cc(-c2ccccc2)n1` was run?
Its Potency is “inactive”.

Which Potency does the source give for `O=c1c2cn[nH]c2nc(SCc2cccc(Br)c2)n1-c1ccc(Cl)cc1` here?
The Potency was inconclusive: 56.2 µM [inhibitor, partial curve, poor fit].

For `COc1ccc(-c2c(C)c3cc(OC(=O)C(C)C)ccc3oc2=O)cc1`, which Potency is on record?
The Potency was inconclusive: 89.1 µM [inhibitor, partial curve, poor fit].

For `O=C(CSc1nnc(-c2ccccc2)n1-c1ccc(Cl)cc1)Nc1ccc2cn[nH]c2c1`, which Potency is on record?
The Potency was “inactive”.

With `COc1ccc(CNC(=O)c2nc(SC(C)C)ncc2Cl)cc1` as the molecule, how does the Potency read?
The Potency was inconclusive: 79.4 µM [inhibitor, partial curve, poor fit].

For `CC(C)C(=O)N(Cc1ccccc1)S(=O)(=O)c1ccc2c(c1)oc(=O)n2C`, which Potency is on record?
Its Potency is inconclusive: 56.2 µM [inhibitor, partial curve, poor fit].

Which Potency does the source give for `COc1ccc(Cn2c(=O)c3cccnc3n(CC(=O)Nc3ccc(C)c(F)c3)c2=O)cc1` here?
Its Potency is inconclusive: 100 µM [inhibitor, single point].

`O=C(Nc1ccc(OC(F)(F)F)cc1)c1nc2ccccc2nc1N1CCCCC1` was tested. Which Potency did it give?
Its Potency is inconclusive: 89.1 µM [inhibitor, partial curve, poor fit].

How did the Potency turn out when `O=C(CCC1N=C2c3ccccc3N=C(SCc3ccc(Cl)cc3)N2C1=O)NCCc1ccccc1` (configuration not stated) was run?
The Potency was inconclusive: 89.1 µM [inhibitor, partial curve, poor fit].
